Here are results for 41 variants from the RNAGym collection of RNA variant scans (doi:10.7554/elife.90254).

The source gives no read counts; variants with many changes may rest on few reads.

Sequences and labels used below:
B1: OR4K15 (parent)
chain: GUUAACGGUCAUAGGCCAUGGAAACUAGGAGCACCAUUUCGCUGCCAGUGAAGAAAUGAACAAAGAAAAUCUGGGCCAGGCAGGCAUCAAAAGAAAUAGUCUUGCGCUCAACCAGAAAGUCUGUAAUCAUUUUAAGGGUA

The variants in this data set derive from B1. As to the kind of experiment: self-cleavage, relative activity (ratio to wild type); higher = more cleavage; in vitro, sequencing; the parent is a self-cleaving ribozyme.
As to GUUAACGGUCAUAGGCCAUGGAAACUAGGAGCACCAUUUCGCUGCCAGUGAAGAAAUGAACAAAGACAAUCUGGGCCAGGCAGGCAUCAAAAGGAAUAGUCUUGCGCUCAACCGGGAAGUCUGUAAUCAUUUUAAGGGUA, the self-cleavage was found to be 0.4.
For GUUAACGGUCAUAGGCCAUGGAAACUAGGAGCACCAUUUCGCUGCCAGUGAAGAAAUGAACAAAGGAAAUCUGGGCCAGGCAGGCAUCAGAAGAAAUGGUCUUGCGCACAACCAGAAAGUCUGUAAUCAUUUUAAGGGUA, the self-cleavage is 0.
The result for GUUAACGGUCAUAGGCCAUGGAAACUAGGAGCACCAUUUCGCUGCCAGUGAAGAAAUGAACAAAGGAAAUCUGGGCCAGGCAGGCAUCAAAAGAAAUAGUCUUGCGCUCAACUAGAAGGUCUGUAAUCAUUUUAAGGGUA reads 0.05.
As to GUUAACGGUCAUAGGCCAUGGAAACUAGGAGCACCAUUUCGCUGCCAGUGAAGAAAUGAACAAAGUAAAUCUGGGCCAGGCAGGCACCAAAAGAAAUAGUCUUGCGCUCAACCAGAAAGUCUGUAAUCAUUUUAAGGGCA, the self-cleavage came to 1.4.
The result for GUUAACGGUCAUAGGCCAUGGAAACUAGGAGCACCAUUUCGCUGCCAGUGAAGAAAUGAACAAAGGAAAUUUGGGCCAGGCAGGCAUCAAAAGAAAUAGUCUUGCGCUCAACCAGAAAGUCAGUAAUCAUUCUAAGGGUA reads 0.39.
The result for GUUAACGGUCAUAGGCCAUGGAAACUAGGAGCACCAUUUCGCUGCCAGUGAAGAAAUGAACAAAGGAAAUCUGGGCCAGGCAGGCAUCAAAAGAAAUAGUCUUGCGCUCAACCAGAAAGUCAGUAAUCAUUUUAAGGGUG reads 1.93.
On to GUUAACGGUCAUAGGCCAUGGAAACUAGGAGCACCAUUUCGCUGCCAGUGAAGAAAUGAACAAAGGAAAUCUGGGCCAGGCAGGCAUCGAAAGAAAUAGUCUUGCGCUCAACCAGAAAGUCUGUAAUCAUUCUAAGGGUA, for which the self-cleavage was 1.3.
The result for GUUAACGGUCAUAGGCCAUGGAAACUAGGAGCACCAUUUCGCUGCCAGUGAAGAAAUGAACAAAGACAUUCUGGGCCAGGCAGGCAUCAAAAGAAAUAGUCUUGCGCUCAACCGGAAAGUCUGUAAUCAUUUUAAGGGUA reads 0.64; that for GUUAACGGUCAUAGGCCAUGGAAACUAGGAGCACCAUUUCGCUGCCAGUGAAGAAAUGAACAAAGUAAAUCUGGGCCAGGCAGGCAUCAAAAGAAAUAGUCUCGCGCCCAACCAGAAAGACUGUAAUCAUUUUAAGGGUA, 0.
On to GUUAACGGUCAUAGGCCAUGGAAACUAGGAGCACCAUUUCGCUGCCAGUGAAGAAAUGAACAAAGGAAAUCUGGGCCAGGCAGGCAUCAAAAGAAAUAGUCUUGCGCUCAACCAGAAGGUCUGUACUCAUUUUAAGGGUA, for which the self-cleavage stood at 0.53.
As for GUUAACGGUCAUAGGCCAUGGAAACUAGGAGCACCAUUUCGCUGCCAGUGAAGAAAUGAACAAAGUAAAUCUGGCCCAGGCAGGCAUCAAAAGAAAAAGUCUUGCGCUCGACCAGAAAGUCUGUAAUCAUUUUAAGGGUA, the self-cleavage is 0.02.
On to GUUAACGGUCAUAGGCCAUGGAAACUAGGAGCACCAUUUCGCUGCCAGUGAAGAAAUGAACAAAGGAAAUCUGGGCCAGGCAGGCAUCAAAAGAAAUAGUCUUGCGCUCAACCAGAGAGUCUGUAGUCAUUUUAAGGGUA, for which the self-cleavage came out at 2.
On to GUUAACGGUCAUAGGCCAUGGAAACUAGGAGCACCAUUUCGCUGCCAGUGAAGAAAUGAACAAAGGAAAUCUGGGCCAGGCAGGCACCAAAAGAAAUAGUCCUGCGCUCAACCAGAAAGUCUGUAAUCAUUUUAAGGGUA, for which the self-cleavage is 2.29.
Take GUUAACGGUCAUAGGCCAUGGAAACUAGGAGCACCAUUUCGCUGCCAGUGAAGAAAUGAACAAAGAGAGUCUGGGCCAGGCAGGCAUCAAAAGAAAUAGUCUUGCGCUCAACCAGAAAGUCCGUAAUCAUUUUAAGGGUA: the self-cleavage amounted to 0.67.
Take GUUAACGGUCAUAGGCCAUGGAAACUAGGAGCACCAUUUCGCUGCCAGUGAAGAAAUGAACAAAGACAAUCUGGGCCAGGCAGGCAUCAAAAGAAAUAGUCUUGCGCUCAACCAGGAAGUCUGUAAUCAUUUAAAGGGUA: the self-cleavage is 0.91.
As to GUUAACGGUCAUAGGCCAUGGAAACUAGGAGCACCAUUUCGCUGCCAGUGAAGAAAUGAACAAAGGAAAUCUGGGCCAGGCAGGCAUCAAAAGAAAUAGUCAUGCGCUCAACCAGAAAGUCUGCAAUCAUUUUAAGGGUA, the self-cleavage was 0.86.
The result for GUUAACGGUCAUAGGCCAUGGAAACUAGGAGCACCAUUUCGCUGCCAGUGAAGAAAUGAACAAAGUAAAUCAGGGCCAGGCAGGCAUCAAAAGAGAUAGUCUUGCGAUCAACCUGAGAGUCUGUAAUCAUUUUAAGGGUA reads 0.01; that for GUUAACGGUCAUAGGCCAUGGAAACUAGGAGCACCAUUUCGCUGCCAGUGAAGAAAUGAACAAAGUAAACCUGGGCCAGGCAGGCAUCAAAAGAAAUAGUCUUGCGCUCAACCAGAAAGUCUGUAAUCAUUUUAAGGGUG, 1.24; that for GUUAACGGUCAUAGGCCAUGGAAACUAGGAGCACCAUUUCGCUGCCAGUGAAGAAAUGAACAAAGAGAAUCUGGGCCAGGCAGGCGUCAAAAGAAAUAGUCUUGCGCUCAACCAGGAAGUCUGUAAUCAUUUUAAGGGUA, 0.73.
On to GUUAACGGUCAUAGGCCAUGGAAACUAGGAGCACCAUUUCGCUGCCAGUGAAGAAAUGAACAAAGGAAAUCUGGGCCAGGCAGGCAUCAAAAGAAAUAGUCUAGCGCUCAGCCAGAAAGUCUGUAAUCAUUUUAAGGGUA, for which the self-cleavage came out at 0.02.
Take GUUAACGGUCAUAGGCCAUGGAAACUAGGAGCACCAUUUCGCUGCCAGUGAAGAAAUGAACAAAGGAAAUCUGGGCCAGGCAGGCAUCAAAAGAAAUAGUCUUGCGCUCAACCAGAAAGUCCGUAAUCAUUUUAAGGGCA: the self-cleavage was determined as 1.14.
With GUUAACGGUCAUAGGCCAUGGAAACUAGGAGCACCAUUUCGCUGCCAGUGAAGAAAUGAACAAAGUGAAUCUGGGCCAGGCAGGCAACAAAAGAAAUAGUCUUGCGCUCAACCAGAAAGUCCGUAAUCAUUUUAAGGGUA, the self-cleavage was 1.39.
For GUUAACGGUCAUAGGCCAUGGAAACUAGGAGCACCAUUUCGCUGCCAGUGAAGAAAUGAACAAAGAGAAUCUGGGCCUGGCAGGCAUCAAAAGAAAUAGUCUUGCGCUCAACCAGAAAGUCUGUAAUCAUUUUAAGAGUA, the self-cleavage came to 0.23.
The result for GUUAACGGUCAUAGGCCAUGGAAACUAGGAGCACCAUUUCGCUGCCAGUGAAGAAAUGAACAAAGAGAAUCUGGGCCAGGCAGGCGUCAAAGGAAAUAGUCUUGCGCUCAACCAGAAGGUCUGUAAUCAUUUUAAGGGUA reads 0.89; that for GUUAACGGUCAUAGGCCAUGGAAACUAGGAGCACCAUUUCGCUGCCAGUGAAGAAAUGAACAAAGGAAAUCUGGGCCAGGCAGGCAUCAGAAGGAAUAGUCUUGCGCUCAACCAGAAAGUCUGUAAUCAUUUUAAGGGUA, 1.5; that for GUUAACGGUCAUAGGCCAUGGAAACUAGGAGCACCAUUUCGCUGCCAGUGAAGAAAUGAACAAAGAGAAUCUGGGCCAGGCGGGCAUCAAAAGAAAUAGUCUUGCGCUCAACCAGAAAGUCUGUAAUCAUUUUAAGGGAA, 0.55.
The result for GUUAACGGUCAUAGGCCAUGGAAACUAGGAGCACCAUUUCGCUGCCAGUGAAGAAAUGAACAAAGAGAAUCUGGGCCAGGCGGGCAUCAAAAGAAAUAGUCUCGCGCUCAACCAGAAAGUCUGUAAUCAUUUUAAGGGUA reads 2.32; that for GUUAACGGUCAUAGGCCAUGGAAACUAGGAGCACCAUUUCGCUGCCAGUGAAGAAAUGAACAAAGAGUAUCUGGGCCAGGCAGGCAUCAAAAGAAAUAGUCAUGCGCUCAACCAGGAAGUCUGUAAUCAUUUUAAGGGUA, 0.23.
With GUUAACGGUCAUAGGCCAUGGAAACUAGGAGCACCAUUUCGCUGCCAGUGAAGAAAUGAACAAAGGAAAUCUGGGCCAGGCAGGCAUCAAAAGAGAUAGUCUUGCGCUCAACCAGAAAGUCUGUAAUCAUUUUGAGGGUA, the self-cleavage was 2.38.
Regarding GUUAACGGUCAUAGGCCAUGGAAACUAGGAGCACCAUUUCGCUGCCAGUGAAGAAAUGAACAAAGGAAAUCUGGGCCAGGCAGGCAUCAAGAGAAUUAGUCUUGCGCUCAACCAGAAAGUCUGUAAUCAUUUUAAGGGUA, the self-cleavage was 0.68.
For the variant GUUAACGGUCAUAGGCCAUGGAAACUAGGAGCACCAUUUCGCUGCCAGUGAAGAAAUGAACAAAGUAAAUCUGGGCCAGGCAGGCAUCAAAAGAGAUAGUCUUGCGCUCAGCCAGAAAGUCUGUAAUCACUUCAAGGGUA, the self-cleavage stood at 0.
As to GUUAACGGUCAUAGGCCAUGGAAACUAGGAGCACCAUUUCGCUGCCAGUGAAGAAAUGAACAAAGGAAAUCUGGGCCAGGCAGGCAUCAAAAGAAAUAGUCUUGCGCUCAACCAGGAAGUCUGUAAUCAUUUUAAGGGUG, the self-cleavage was found to be 1.06.
On to GUUAACGGUCAUAGGCCAUGGAAACUAGGAGCACCAUUUCGCUGCCAGUGAAGAAAUGAACAAAGACAAUCUGGGCCAGGCAGGCAUCAAAAGAAAUAGACUUGCGCUCAACCAGGAAGUCUGUAAUCAUUUUAAGGGUA, for which the self-cleavage was 0.91.
As to GUUAACGGUCAUAGGCCAUGGAAACUAGGAGCACCAUUUCGCUGCCAGUGAAGAAAUGAACAAAGGAAAUCUGGGCCAGGCAGGCACCAAAAGAAAUAGUCUUGCGCUCAACCAGAAAGCCUGUAAUCAUUUUAAGGGUA, the self-cleavage came to 1.53.
For GUUAACGGUCAUAGGCCAUGGAAACUAGGAGCACCAUUUCGCUGCCAGUGAAGAAAUGAACAAAGGAAAUCUGGGCCAGGUAGGCAUCAAAAGAAAUAGUCUUGCGCUCAACCAGAAAGUCUGUAUUCAUUUUAAGGGUA, the self-cleavage worked out at 0.43.
Take GUUAACGGUCAUAGGCCAUGGAAACUAGGAGCACCAUUUCGCUGCCAGUGAAGAAAUGAACAAAGGAAAUCUGGGCCAGGCAGGCAUCAAAAGAAAUAGUCUUGCGCUCAACCGGAGAGUCUGUAAUCAUUUAAAGGGUA: the self-cleavage stood at 0.3.
Regarding GUUAACGGUCAUAGGCCAUGGAAACUAGGAGCACCAUUUCGCUGCCAGUGAAGAAAUGAACAAAGGAAAUCUGGGCCAUGCAGGCAUCAAAAGAAAUAGUCUUGCGCUCAACCAGGAAGUCUGUAAUCAUUUUAAGGGUA, the self-cleavage is 0.03.
As for GUUAACGGUCAUAGGCCAUGGAAACUAGGAGCACCAUUUCGCUGCCAGUGAAGAAAUGAACAAAGGAAACCUGGGCCAGGCAGGCAUCAAAAGAAAUAGUCUUGCGCUCAACCAGAAAGUCUGUAAUCAUCUUAAGGGUA, the self-cleavage amounted to 0.22.
In the case of GUUAACGGUCAUAGGCCAUGGAAACUAGGAGCACCAUUUCGCUGCCAGUGAAGAAAUGAACAAAGAGAGCCUGGGCCAGGCAGGCAUCAAAAGAAAUAGUCUUGCGCUCAACCAGAAAGUCUGUAAUCAUUUUAAGGGUA, the self-cleavage turned out to be 0.18.
For GUUAACGGUCAUAGGCCAUGGAAACUAGGAGCACCAUUUCGCUGCCAGUGAAGAAAUGAACAAAGACAGUCUGGGCCAGGCAGGCAUCAAAAGAAAUAGUCCUGCGCUCAACCAGAAAGUCUGUAAUCAUUUUAAGGGUA, the self-cleavage is 1.59.
The result for GUUAACGGUCAUAGGCCAUGGAAACUAGGAGCACCAUUUCGCUGCCAGUGAAGAAAUGAACAAAGGAAAUCUGGGCCAGGCAGGCAUCAAAAGAAAUAGUCCUGCGCUCAACCAGAAGGUCUGUAAUCAUUUUAAGGGUA reads 1.41.
